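All cell lines were grown in 96-well plates and treated with compound for 48 hours. GI50 marks 50% less growth.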 Active and inactive are the calls of the source. Cut-off read from the data, not from the text of the source: active = GI50 up to about 1.1 µM and inactive = higher.

The assay concerns NCI-H322M. The assay can be described thus: NCI tumour cell line growth inhibition, 48 h.
Take `COc1cc(C=C2C(=O)OC(C)(C)OC2=O)cc(OC)c1OC`: the GI50 was inactive: > 100 µM.
Take `Cn1cnc([N+](=O)[O-])c1Sc1nc(N)nc2c1ncn2[C@H]1C[C@H](O)[C@@H](CO)O1`: the GI50 was inactive: 14.5 µM.
Regarding `COc1ccc2oc(=N)c(C(=O)NCc3ccccc3)cc2c1`, the GI50 is inactive: 48.4 µM.
The result for `O=C(/C=C/c1cccc(Oc2ccccc2)c1)NCc1ccc(C(=O)NCc2ccccc2)cc1` reads inactive: > 100 µM; that for `CC(=O)OC1C(Oc2c(C)cc3c(c2O)[C@@H](C)CC[C@@H]3[C@@H](C)CCC=C(C)C)OCC(O)C1O` (stereo not given in full), inactive: 18.3 µM.
In the case of `CCCCCC/C=C\CCCCCCCCCc1cccc(OC)c1O`, the GI50 is inactive: > 100 µM.
Regarding `Cc1nc2c(n1CCC(C)C)C(=O)c1ccccc1C2=O`, the GI50 is inactive: 35.7 µM.
As to `COC(=O)c1cc2c(cc1C(=O)OC)[C@@]1(C)CCCC(C)(C)C1CC2` (stereo not given in full), the GI50 was inactive: 16 µM.
As to `CC(=O)c1cc(CC2Cc3cc4c(cc3C2=O)CCC4)cc2c1CCC2` (stereo not given), the GI50 was inactive: > 100 µM.
Take `CCOC(=O)C(CCCNC(=O)OC(C)(C)C)N(Cc1ccc(OC)cc1OC)C(=O)CC(=O)CP(=O)(OCC)OCC` (stereo not given): the GI50 is inactive: > 100 µM.
In the case of `CCOC(=O)CSc1nc(-c2ccccc2)c(C#N)c(=O)[nH]1`, the GI50 is inactive: > 100 µM.
Take `C=C1C(=O)OC2/C=C(\CO)C3OC3C3OC3(C)CC(OC(=O)/C(=C/C)COC(C)=O)C12` (stereo not given): the GI50 was inactive: 18.9 µM.
As for `Cc1oc2c(C)c(O)c3c(c2c1C1(C)OCCO1)C(=O)C=C(Cl)C3=O`, the figure is inactive: > 100 µM.
As to `O=C1N2Cc3c4ccc5c3CN3C(=O)N6Cc7c(ccc(c7CN1C6(c1ccccc1)C23c1ccccc1)OCCOCCOc1cc(Br)c(Br)cc1OCCOCCO4)OCCOCCOc1cc(Br)c(Br)cc1OCCOCCO5` (stereo not given), the GI50 is inactive: > 100 µM.
The result for `COc1ccc(OC(=O)CC2Cc3cc(OC)c(OC)c(OC)c3-c3ccc(SC)c(=O)cc32)cc1` (stereo not given) reads active: 0.65 µM; that for `Cc1ccccc1NC(=O)Cc1csc(N/N=C2\C(=O)Nc3ccccc32)n1`, inactive: 29.2 µM; that for `Cc1nc(=O)[nH]c2c1C(=O)N(C(C)C)C(NC(C)C)S2` (stereo not given), inactive: > 100 µM.
Turning to `Cc1cc(C)n(C2OC(CO)C(O)C(O)C2O)c(=S)c1C#N` (stereo not given), the GI50 is inactive: > 100 µM.
`CCN(CC)C1C(=O)NC1C#Cc1ccccc1` (stereo not given): the GI50 is inactive: > 100 µM.
Consider `O=C1C=Cc2c1csc2Br`, for which the GI50 is inactive: > 100 µM.
For the molecule `O=C1OC(=O)c2c1c(-c1ccccc1)cn2-c1ccc(Cl)cc1`, the GI50 was inactive: > 100 µM.
For `C[N+]1(C)CC=C(N2CCOCC2)CC1`, the GI50 is inactive: > 10 µM.
In the case of `CCN(CC)Cc1ccc2cccnc2c1O`, the GI50 was inactive: 5 µM.
In the case of `COc1ccc2cc1Oc1ccc(cc1)C(Sc1ccccc1)CCOC(=O)CC2` (stereo not given), the GI50 is inactive: > 100 µM.
As to `S=C(N/N=C(/c1ccccc1)c1ccccn1)Nc1cccc(Cl)c1`, the GI50 is active: 0.0153 µM.
For `Cc1c(CC/C(=N\Nc2ccc([N+](=O)[O-])cc2[N+](=O)[O-])c2ccccc2)c2ccccc2n1C`, the GI50 is inactive: > 100 µM.
Regarding `CCc1ccccc1NC(=O)C1=C(C)NC(C)=C(C(=O)Nc2ccccc2CC)C1c1ccccc1Cl`, the GI50 was inactive: > 100 µM.
Turning to `CC(=O)Oc1c2c(c(CC=C(C)C)c3c1C(=O)C1=C[C@@H]4CC5C(C)(C)OC(C/C=C(/C)C(=O)O)(C4=O)[C@@]15O3)OC(C)(CCC=C(C)C)C=C2` (stereo not given in full), the GI50 is active: 0.469 µM.
For the molecule `CN(C(=O)c1ccccc1)c1ccc2c(c1)C(=O)c1ccccc1C2=O`, the GI50 is inactive: > 100 µM.
As for `N#CC1(C#N)NC(c2ccccc2)C(C#N)(C#N)NC1c1ccccc1` (stereo not given), the figure is inactive: > 100 µM; as for `OCCCCOC(c1ccccc1)(c1ccccc1)c1ccccc1`, inactive: > 100 µM; as for `COc1cc2c(cc1OC)C1Cc3cc(OC)c(OC)cc3N1CC2` (stereo not given), inactive: 51.2 µM.
The result for `CCOCCOC(=O)C1CCC(=O)N1CN(C(C)=O)c1cc(OC)ccc1OC` (stereo not given) reads inactive: > 100 µM; that for `COC(=O)c1ccc([N+](=O)[O-])c(O)c1`, inactive: > 100 µM.
As for `COC(=O)/C=C(/C(=O)OC)c1c(C)c(C)c2c(C)cc(C)cc(C)c1-2`, the figure is inactive: 47.8 µM.
Take `COc1cc(C(O)c2ccc3c(c2)OCO3)cc(OC)c1OC` (stereo not given): the GI50 is inactive: > 100 µM.
Regarding `Nc1c(Cl)ncnc1NCC1(CO)CCC1`, the GI50 was inactive: > 100 µM.
Take `Cc1ccc2nc(Cl)c(/C=N/N3C(=O)/C(=C/Cc4ccco4)N=C3c3ccccc3)cc2c1`: the GI50 is inactive: > 71.9 µM.
Take `COC(=O)c1ccccc1NC(=O)C(=O)CC(=O)c1ccccc1NC1=CC(=O)C(=O)c2ccccc21`: the GI50 was inactive: 15 µM.
As for `C/C=C1/CN2CCc3c([nH]c4ccccc34)[C@@H]2C[C@@H]1Cc1nccc2c1[nH]c1cc(O)ccc12`, the figure is inactive: 1.87 µM; as for `C/C(=N\NC(=O)CC(=O)N(C(=O)c1ccc(Cl)cc1)c1ccc(C)cc1)c1ccccc1O`, inactive: 4.32 µM.
On to `CCn1c(-c2ccc(C)cc2)cs/c1=N\C(P(=O)(O)O)P(=O)(O)O`, for which the GI50 is inactive: > 100 µM.
Consider `N#Cc1c(N)c2c(c(-c3ccccc3)c1-c1ccccc1)C(=O)N(N)C2=O`, for which the GI50 was inactive: > 100 µM.
As to `O=C1NC(=S)NC(=O)C1=CC1CC1`, the GI50 was inactive: > 100 µM.
Consider `O=C(O)C[C@@H](Cl)[C@H](NC(=O)OCc1ccccc1)C(=O)O`, for which the GI50 was inactive: > 100 µM.
As for `O=CC1CCC=CC1NC(=O)OCc1ccccc1` (stereo not given), the GI50 was inactive: > 100 µM.
The result for `CC(=O)OCC1OC(Oc2cc(C)c(O)cc2C/C=C(\C)CC/C=C(\C)CC(=O)CC(C)C)C(O)C(OC(C)=O)C1OC(C)=O` (stereo not given) reads inactive: 6.47 µM; that for `CCOC(OCC)N1C(=O)C2(C(OCC)OCC)CC3C(OC(=O)N3N)c3cccc1c32` (stereo not given), inactive: > 100 µM.
The result for `Br[Se]c1ccccn1` reads inactive: 16 µM.
On to `COc1cc(COC(=O)N2CCCCC2C(=O)O)c([N+](=O)[O-])cc1OC` (stereo not given), for which the GI50 is inactive: > 100 µM.
As for `CN(C)CCCNC(=O)c1c(O)c2ccccc2n(C)c1=O`, the figure is inactive: 53 µM.
As for `Oc1ccc(NCn2c(=S)sc3ccccc32)cc1`, the GI50 is inactive: > 100 µM.
For `Nc1ccc2c(=O)cc(-c3ccc(Br)s3)[nH]c2n1`, the GI50 was inactive: 5.61 µM.
The result for `CCCCCCc1cc2cc(C(=O)Nc3nc(C45CC6CC(CC(C6)C4)C5)cs3)c(=O)oc2cc1O` reads inactive: 17.9 µM.
Regarding `COc1ccc(/C=N/Nc2nc(=S)[nH]c3[nH]ncc23)cc1`, the GI50 was inactive: 36.6 µM.
Take `C[C@@H]1CCC2[C@@H](C)C(=O)O[C@@H]3C4C[C@@H]1[C@@]23OO[C@@]4(C)O` (stereo not given in full): the GI50 is inactive: > 100 µM.
For the molecule `CC1=CC(=O)/C(=C/NC(=S)NCc2ccccc2)C(=O)O1`, the GI50 is inactive: > 100 µM.
For `O=C(O)CNc1c2ccccc2[n+]([O-])c2ccccc12`, the GI50 was inactive: > 100 µM.
On to `Cc1nc2c(=O)[nH]c(=O)n(C)c2[nH]c1=O.c1ccncc1`, for which the GI50 is inactive: > 100 µM.
With `C[Si](C)(c1ccccc1)[C@H]1CCCC=C1CCNC1c2ccccc2CCc2ccccc21`, the GI50 was inactive: > 100 µM.
Turning to `COC(=O)C1CCC(=O)N1C(c1ccccc1)c1cc(OC)c(OC)c(OC)c1` (stereo not given), the GI50 was inactive: > 100 µM.
In the case of `CC(O)(C(=O)N(O)c1ccc(Cl)cc1)c1ccc(Cl)cc1` (stereo not given), the GI50 was inactive: 31.6 µM.
Regarding `O/N=C\c1c(O)ccc2ccccc12`, the GI50 was inactive: 26.1 µM.
Turning to `Cc1oc2nc(N(C)C)n3nnnc3c2c1C`, the GI50 is inactive: > 100 µM.
The result for `C=CCN1C(=O)CS/C1=N\NC(=O)c1c(C)nc2sccn12` reads inactive: > 100 µM.
Turning to `CC[C@H]1CN(C)[C@H]2Cc3c([nH]c4ccccc34)C(=O)C[C@H]1C2C(=O)OC` (stereo not given in full), the GI50 was inactive: > 100 µM.
For `O=C1CC(Sc2nc3ccc(I)cc3c(=O)n2Cc2ccccc2)C(=O)NN1` (stereo not given), the GI50 was inactive: 28.1 µM.
As for `O=C1Nc2nc3ccccc3n2N=C2CCCC12` (stereo not given), the figure is inactive: 68.9 µM; as for `Cc1ccc(S(=O)(=O)NC(CCC(=O)NNc2ccccc2)C(=O)NNc2ccccc2)cc1` (stereo not given), inactive: 80.4 µM.
The result for `Cc1ccc(NC(=O)CCc2nnc3s/c(=C\c4cccc([N+](=O)[O-])c4)c(=O)n23)cc1` reads inactive: > 100 µM.
Turning to `CCOC(=O)C(NC(=O)OCc1ccccc1)C(=O)O` (stereo not given), the GI50 was inactive: > 100 µM.
For `CCCCCCCCCCCCCCCC/C(C(=O)OC)=C(/O)C(=O)OCC`, the GI50 was inactive: > 100 µM.
On to `[O-][S+](c1ccccc1)c1ccc(/N=N/O)nc1` (stereo not given), for which the GI50 was inactive: > 100 µM.
`N#C[BH2-][n+]1cn(C2CC(OP(=O)(O)OCC3OC(n4cnc5c(N)ncnc54)CC3O)C(CO)O2)c2nc(N)[nH]c(=O)c21` (stereo not given): the GI50 is inactive: > 100 µM.
For the molecule `CC(=O)O[C@@H]1CC2[C@@H](CCC3Cc4nc5c(nc4C[C@@]32C)CC2CC[C@@H]3C(CC[C@@]4(C)C3CC[C@@H]4C(C)CCCC(C)C)[C@@]2(C)C5)C2C[C@@H]3OC4(CCC(C)CO4)C(C)[C@@H]3[C@]21C` (stereo not given in full), the GI50 is inactive: > 100 µM.
In the case of `CC1CC(=O)C(CC(=O)O)[C@H]1C(C(=O)C(=O)Nc1cc(Cl)ccc1Cl)[N+](=O)[O-]` (stereo not given in full), the GI50 is inactive: > 100 µM.
Consider `COC(=O)C1=C(O)C(C(=O)OC)[C@@]2(O)[C@@H](C(=O)OC)C(c3ccc(OC(=O)/C(=C/c4ccc(Cl)cc4)c4ccc(Cl)cc4)cc3)C[C@@H]1[C@@H]2C(=O)OC` (stereo not given in full), for which the GI50 is inactive: 54.6 µM.
As for `N/C(=N/O)c1cn(C2OC(CO)C(O)C2O)c2ncnc(NO)c12` (stereo not given), the GI50 was active: 0.303 µM.
Regarding `O=[N+]([O-])c1ccc2nc(Nc3ccccc3)c(Nc3ccccc3)nc2c1`, the GI50 is inactive: 3.5 µM.
For `COc1cc(/C=C\c2ccc(Br)cc2)cc(OC)c1OC`, the GI50 was active: 0.00381 µM.

The values above are taken from ChEMBL document CHEMBL1201862, “PubChem BioAssay data set” (2004).
